Measured values taken from the supplement of paper PMC11417369.
± gives the standard deviation of the averaged measurements. The list shows a part of the results.

The sequences below were run on PfAP2-G AP2 domain (GST-tagged) (assay: gcPBM binding intensity (ln(normalized median fluorescence intensity)); higher = stronger DNA binding).
Outline: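 GST-tagged P. falciparum DNA-binding domains produced in E. coli were incubated for 1 h on an Agilent 4 × 180k array of primer-extended double-stranded 36-bp intergenic genomic probes with negative controls. Binding intensity is the highest Masliner-normalised natural-log median intensity across replicate spots of either probe orientation, with bound protein detected by Alexa488 anti-GST antibody at 488 nm.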

Sequence | gcPBM binding intensity (ln)
TCCTATATATAAATATTAATATATATGTATTGGTAT [GTGCAC_negctrl_site23] | 9.645 ± 0.049
AAAAAAAAAAAAAACACACACACAAATACAAATGGT [CACACA_site1721] | 10.29 ± 0.042
TTTCTTATTTTGGATTGTACGTATATTTTTCATTTT [XGTACX_site224] | 11.4 ± 0.78
TTTCCAAATACAACTACACACAAACAAAAGTTATAT [CACACA_site6544] | 10 ± 0.11
AAATTTAACAACTTCAAACACACAATATATATATAT [CACACA_site2092] | 10 ± 0.37
TATATATATATGTGCGTGCACGTTACCTTGCTGTTT | 10.5 ± 0.32
TTTTGAAGCTTTAAAACATATATATATATATATATA [CACACA_negctrl_site184] | 10.1 ± 0.9
AGCAAAACAAAAAAATTAAAATTAACATATAATCAT [GTGCAC_negctrl_site393] | 9.45 ± 0.28
AATAAGAGGATACATTGTACATAAAAAAAAAAAATA [XGTACX_site1815] | 11 ± 0.69
AACACATAATAAAATTGTACCCAACATTTCTTTTGA [XGTACX_site8061] | 11.1 ± 0.57
TATGTGAATAAATAAGCACACATAAACACATATATA [CACACA_site9359] | 9.995 ± 0.035
ATGTTCTTATTATTGGTGCAAGAATACACAAGAAAA | 10.4 ± 0.45
TATTGTTCTTATTTAGTGCATATATAATATAATATA [GTGCAC_site9827] | 10.3 ± 0.33
ATAAAAATTTAAAAAGAACACACGAAAGAAGGACTT [CACACA_site3929] | 10.5 ± 0.28
AACAAATACAGACACACACACACACCCAAAAAAAAA [CACACA_site515] | 10.4 ± 0.42
ATACAACAAAAATAAGCACACACAAATATACATACA [CACACA_site9201] | 10.07 ± 0.085
TATATAAACACGTACACACACATATCTGTATTTATA [CACACA_site5858] | 11.6 ± 0.93
AATACCTACCAAACATGTACATACGCTTCTCAAATA [XGTACX_site5535] | 11.2 ± 0.66
GTGAGCTCAGACTACACACACAAAGAAAAAAATAAA [CACACA_site1553] | 10.3 ± 0.42

Sequence | gcPBM binding intensity (ln)
ATATTTTTAGGTGATTATTATTCGGAGAAGCGAATT [CACACA_negctrl_site1097] | 9.73 ± 0.014
AAAAAAAAAAAAAAAAAAAAAAAAAAAAAATATGTG [GTGCAC_negctrl_site657] | 11.3 ± 0.61
GAAATATAATTTATTACACACATTTTAAAAAAATTC [CACACA_site1087] | 9.99 ± 0.3
TTCAACGTTTTGGAATGTACAGAAAGGTATCCATCA [XGTACX_site179] | 10.9 ± 0.59
TTTATAACATTTAAGAGTACAAAAAAATAAATAAAT [XGTACX_site1264] | 11.3 ± 0.79
TAAAAGATAAAATATGCATGTGTAATTTTTTTTTTT [TGCATGCA_site955] | 9.7 ± 0.071
TATTATTTACTTATTGCACACATATAAAATATATTT [CACACA_site9017] | 10.16 ± 0.042
ATGAACTAAACTAATCGTACAATAAGTTTTATTATA [XGTACX_site4891] | 11.1 ± 0.51
AAAAAAATATATAAATGTACATATTGTTTAATTAAT [XGTACX_site3794] | 11 ± 0.59
TCACACACTCTCAAAAGTACAAGAAGATTATGAAGA [XGTACX_site4748] | 11.1 ± 0.8
ATCTATCATATTTATGCACACAAAAATAATTAATTC [CACACA_site8837] | 10.3 ± 0.26
TTGATTAAAATTAGTACACACAAAATACATGCGGGG [CACACA_site5284] | 11.6 ± 0.94
TTAAATATAATTATATGTACATATTTATGTATATAT [XGTACX_site5811] | 11.2 ± 0.73
AGATTGTATTTATGTACACACATTTTTGGAATATGA [CACACA_site1340] | 11.4 ± 0.73
TTAATTATCCATTTTGCACACATTTTAAAACATGAA [CACACA_site189] | 10.2 ± 0.092
AATTTACAAAAAAGAAAAAAAAAAAAAAAGATACTT [CACACA_negctrl_site1434] | 9.65 ± 0.071
ATATGCACTCATTGTGCACACGCATATTACGAAAAG [CACACA_site2637] | 10.7 ± 0.39
ATATTATAATGTTTTTACGAATTCGCAAATTATTAT [GTGCAC_negctrl_site470] | 9.835 ± 0.064
TTTTTTTTTTTTTTTTTTTTTTTTTTATGATATATA [GTGCAC_negctrl_site365] | 9.63 ± 0.44

Sequence | gcPBM binding intensity (ln)
TATATATTAAAATAATCACACACATCAATTAATGGT [CACACA_site8331] | 9.945 ± 0.049
TAATTTATTACCATGTAATTATTACGAATATAGGAT [CACACA_negctrl_site694] | 10.1 ± 0.28
AAAAAATTATTAATTTGTACATAAATAACCAAAAAA [XGTACX_site2488] | 10.7 ± 0.36
ATATATTTTTTAAATTTAAAAATTATAAAATTTATA [TGCATGCA_negctrl_site36] | 9.7 ± 0.099
TAAATAAAAAAAAAAAGTACATACATACAAACATAT [XGTACX_site4427] | 11.4 ± 0.88
ATATATGTGCGCGTATGTACATAAAATAAATATACA [XGTACX_site2689] | 11.5 ± 0.84
TCTCATAGGAAACACACACACACACCCACATATATA [CACACA_site1738] | 10.4 ± 0.36
ATATATTTTTAATTACGTACTTAATAATATATACAA [XGTACX_site3285] | 11.3 ± 0.85
TAAAAGAAAAATTAGTGTACCAATATTAACATAAAA [XGTACX_site5474] | 11.1 ± 0.64
TGGGTCTCTAACTGGTGTACTATTTACATATTATAC [XGTACX_site8593] | 11.5 ± 0.93
TATGATTTTAACAACTGTACAATATAATAAATCTAA [XGTACX_site2198] | 11.1 ± 0.79
GAAAAAGACAAAAGGTGTACAATATGAAATATATAT [XGTACX_site373] | 11.5 ± 0.86
ATATTATGATCTATTTTTATATTCTATTTGATAAAT [CACACA_negctrl_site1070] | 9.795 ± 0.035
GTTCACCAAAGGTAACGTACACAAACATATATATAT [XGTACX_site1073] | 11.4 ± 0.93
TATACAATATATTTTGGTACACAAACAAAAAAATAT [XGTACX_site2522] | 11.2 ± 0.82
ATTAAAAGAACCAAGTGTACATTCTATATATAAAAA [XGTACX_site4260] | 11.1 ± 0.69
TATATATATATTATATGTACATAAATATTTATACTC [XGTACX_site114] | 11.2 ± 0.71
TTGATAAAATGGGAGAAATTAAAAAGGAAAAAAAAA [CACACA_negctrl_site1279] | 9.87 ± 0.12
